According to the supplement of paper PMC5919970:
Counter-ions that a name gives are not always drawn. In all, about 2,000 compounds were measured (“fractional viability relative to vehicle”: median about 0.91, lowest 2% from about 0.045 on). Some of the results follow.

Test system: TYKNU
Assay: fractional viability relative to vehicle; TYKNU is a high-grade serous ovarian cancer line; higher = less growth inhibition
Details: 72 h
Procedure, shortened: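 Drug treatment lasted 72 h, with cells grown at 37 °C in 5% CO2 in RPMI 1640 supplemented with 10% FBS. Beforehand, TYKNU control cells or their lentiCRISPRv2 knockout derivatives had been seeded at 500 cells per well into drug-stamped 384-well plates carrying a ~2100-compound library at 2 or 10 μM, in duplicate. Viability came from Cell Titer Glo luminescence, with averaged duplicate treatment wells normalised to duplicate control wells in the same plate position.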

[1] = 2uM, genotype: DNM1L knockout (sgDNM1L #1)
[2] = 2uM, genotype: sgCTRLA1 (non-targeting control)
[3] = 10uM, genotype: DNM1L knockout (sgDNM1L #1)
[4] = 10uM, genotype: sgCTRLA1 (non-targeting control)

SMILES	fractional viability [1]	fractional viability [2]	fractional viability [3]	fractional viability [4]
O=S(=O)(O)CCSSCCS(=O)(=O)O [Dimesna]	0.95	1.09	0.861	1.11
Clc1ccccc1C(c1ccccc1)(c1ccccc1)n1ccnc1 [Clotrimazole]	0.943	0.974	0.654	0.808
NC(=O)NO [Hydroxyurea]	0.92	1.14	0.948	1.16
Clc1ccc(COC(Cn2ccnc2)c2ccc(Cl)cc2Cl)cc1 (configuration not stated) [Econazole nitrate]	0.9	1.02	0.489	0.918
Cc1cc(CS(=O)(=O)c2ccccc2)cc(OCc2ccc(CN3CCC[C@@H]3CO)cc2)c1	0.945	1.07	0.72	0.878
CCc1cc(/C(C)=N/OCc2ccc(C3CCCCC3)c(C(F)(F)F)c2)ccc1CN1CC(C(=O)O)C1 [BAF312 (Siponimod)]	0.913	1.03	0.593	0.808
COc1cc2c(cc1OC)CN(CCc1ccc(NC(=O)c3cccc4c(=O)c5cccc(OC)c5[nH]c34)cc1)CC2	0.779	0.958	0.877	0.835
CCN(CCCc1ccccc1)CCCc1ccccc1 [Alverine Citrate]	1.18	0.98	0.896	0.912
Cn1cnc(N)c2ncnc1-2 [3-Methyladenine]	1.08	1.09	0.853	1.14
Cc1c(O)cccc1C(=O)N[C@@H](CSc1ccccc1)[C@H](O)CN1C[C@H]2CCCC[C@H]2C[C@H]1C(=O)NC(C)(C)C [Nelfinavir Mesylate]	0.778	1.11	0.283	0.741
CN(C)CCC(c1ccccc1)c1ccccn1 (configuration not stated) [Pheniramine Maleate]	1.06	1.17	0.864	1.06
CC(C)NCCCn1c(Sc2cc3c(cc2I)OCO3)nc2c(N)ncnc21	0.207	0.177	0.233	0.123
Nc1ccn([C@@H]2O[C@H](CO)[C@@H](O)[C@H]2O)c(=O)n1 [Cytidine]	0.957	1.05	0.95	1.02
CN(C)CCN1C(=O)c2cccc3cc(N)cc(c23)C1=O [Amonafide]	0.766	0.838	0.32	0.26
CCOc1ccc(Cc2cc([C@@H]3O[C@H](CO)[C@@H](O)[C@H](O)[C@H]3O)ccc2Cl)cc1 [Dapagliflozin]	0.901	1.01	0.842	1.01
O[C@@H]1CO[C@H]2[C@@H]1OC[C@@H]2O [Isosorbide]	0.693	1.13	0.625	1.05
O=c1cc(CN2CCOCC2)occ1OCCCCCSc1ccnc2cc(C(F)(F)F)ccc12	0.804	0.892	0.682	0.468
Cc1cc(C)cc(NC(=O)Cc2ccc(OC(C)(C)C(=O)O)cc2)c1 [Efaproxiral Sodium]	0.85	1.1	0.696	1.09
Cc1ccc(O)c([C@H](CCN(C(C)C)C(C)C)c2ccccc2)c1 [Tolterodine tartrate]	0.88	1.02	0.688	1.06
CCCCOc1ccc(CC(=O)NO)cc1 [Bufexamac]	1.12	1.11	0.86	0.9

SMILES	fractional viability [1]	fractional viability [2]	fractional viability [3]	fractional viability [4]
CCCCCCCCCCCCCCCCO [1-Hexadecanol]	0.833	1.09	0.879	1.1
CCN1/C(=C/C(C)=O)Sc2ccc(OC)cc21	0.758	0.997	0.679	0.915
CCCCC(C=O)NC(=O)C(CC(C)C)NC(=O)C(CC(C)C)NC(C)=O (configuration not stated)	0.729	0.896	0.784	0.747
Cc1nn(C)c(COc2ccc(N3CCN(S(=O)(=O)N(C)C)CC3)cc2)c1-c1cccc2c(CCCOc3cccc4ccccc34)c(C(=O)O)n(CCN3CCOCC3)c12	0.762	0.94	0.644	0.518
CCCC(=O)Nc1ccc(OCC(O)CNC(C)C)c(C(C)=O)c1 (configuration not stated) [Acebutolol HCl]	0.982	1.09	0.768	0.958
C[C@@H]1O[C@@H](OC[C@H]2O[C@@H](Oc3c(-c4ccc(O)c(O)c4)oc4cc(O)cc(O)c4c3=O)[C@H](O)[C@@H](O)[C@@H]2O)[C@H](O)[C@H](O)[C@H]1O [Rutin]	0.96	1.19	0.774	1.1
CN1[C@@H]2CC[C@H]1C[C@@H](OC(c1ccccc1)c1ccccc1)C2 [Benztropine mesylate]	0.919	1.03	0.712	0.947
N=C(N)c1ccc(N=NNc2ccc(C(=N)N)cc2)cc1 [Diminazene Aceturate]	1.01	1.09	0.817	1.07
C[C@H](CCC(=O)O)[C@H]1CC[C@H]2[C@@H]3C[C@H](O)[C@@H]4C[C@H](O)CC[C@]4(C)[C@H]3CC[C@]12C [Hyodeoxycholic acid (HDCA)]	0.969	1.06	0.951	1.05
NC(=O)Nc1sc(-c2ccc(F)cc2)cc1C(N)=O	0.75	0.883	0.245	0.294
CC(C)(C)OC(=O)N[C@H]1CCCCC/C=C\[C@@H]2C[C@@]2(C(=O)NS(=O)(=O)C2CC2)NC(=O)[C@@H]2C[C@@H](OC(=O)N3Cc4cccc(F)c4C3)CN2C1=O [Danoprevir (ITMN-191)]	1.02	1.05	0.951	1.13
N[C@@H](CC(=O)N1CCn2c(nnc2C(F)(F)F)C1)Cc1cc(F)c(F)cc1F [Sitagliptin phosphate monohydrate]	1.09	1.2	0.959	1.08
C[C@@H]1O[C@@H](O[C@H]2[C@H](Oc3cc(O)c4c(c3)O[C@H](c3ccc(O)cc3)CC4=O)O[C@H](CO)[C@@H](O)[C@@H]2O)[C@H](O)[C@H](O)[C@H]1O [Naringin]	0.915	1.12	0.827	1
C/C(O)=C(\C#N)C(=O)Nc1ccc(C(F)(F)F)cc1 [Teriflunomide]	0.811	0.883	0.395	0.564
COc1nc(C)cnc1NS(=O)(=O)c1cccnc1-c1ccc(-c2nnco2)cc1 [Zibotentan (ZD4054)]	1.16	1.21	0.906	1
Nc1nccc2c1ncn2C1C=C(CO)C(O)C1O (configuration not stated) [3-Deazaneplanocin A (DZNeP)]	0.453	0.62	0.42	0.575
Cc1nc(N(C)C(=O)Cc2ccc(-c3ccccn3)cc2)sc1S(N)(=O)=O [Pritelivir (BAY 57-1293)]	0.897	0.947	0.855	0.818
Cn1cc(/C=C/C(=O)c2cccc(F)c2)cc1/C=C/C(=O)NO	1.05	1.14	0.58	0.87
C[C@@H](Oc1cc(-c2cnn(C3CCNCC3)c2)cnc1N)c1c(Cl)ccc(F)c1Cl	0.669	0.73	0.128	0.126
Cc1cc(Nc2ncc(Cl)c(Nc3ccccc3S(=O)(=O)C(C)C)n2)c(OC(C)C)cc1C1CCNCC1	0.612	0.403	0.026	0.0128

SMILES	fractional viability [1]	fractional viability [2]	fractional viability [3]	fractional viability [4]
O=C(O)Cc1cc(I)c(Oc2ccc(O)c(I)c2)c(I)c1 [Tiratricol]	0.914	1.24	0.699	0.986
CCC(CC)(NC(=O)C(C)C)C(=O)N[C@@H](CCCN=C(N)N)C(=O)NC1(C(=O)NC(c2ccc(F)cc2)c2ccc(F)cc2)CCCC1	0.777	1.17	0.671	1.06
Cc1ccc(C(=O)C(C)CN2CCCCC2)cc1 (configuration not stated) [Tolperisone HCl]	0.857	1.19	0.793	0.915
CNCC[C@@H](Oc1ccccc1C)c1ccccc1 [Atomoxetine HCl]	1.04	1.15	0.786	1.16
COc1cc2ncnc(Nc3ccc(F)c(Cl)c3)c2cc1NC(=O)/C=C/CN1CCCCC1	0.843	0.792	0.251	0.0521
CCCCC1C(=O)N(c2ccccc2)N(c2ccccc2)C1=O [Phenylbutazone]	1.04	1.12	0.94	1.1
Nc1ncnc2c1nc(Br)n2[C@@H]1O[C@@H]2COP(=O)(O)O[C@H]2[C@H]1O [8-Bromo-cAMP]	0.579	0.676	0.481	0.386
COCCCOc1cc(C[C@@H](C[C@H](N)[C@@H](O)C[C@H](C(=O)NCC(C)(C)C(N)=O)C(C)C)C(C)C)ccc1OC [Aliskiren Hemifumarate]	0.931	1.1	0.879	1.03
CCCc1nc2c(C)cc(-c3nc4ccccc4n3C)cc2n1Cc1ccc(-c2ccccc2C(=O)O)cc1 [Telmisartan]	1	1.18	0.835	1.06
Cc1ccc(C(=O)N(CCCN)[C@@H](c2nc3cc(Cl)ccc3c(=O)n2Cc2ccccc2)C(C)C)cc1	0.325	0.437	0.107	0.105
CC(=O)/N=c1/sc(S(N)(=O)=O)nn1C [Methazolamide]	1.05	1.16	0.883	1.1
CC1=CC(=O)c2ccccc2C1=O [Menadione]	0.872	1.1	0.952	0.951
CC(=O)NC[C@H]1CN(c2ccc(N3CCOCC3)c(F)c2)C(=O)O1 [Linezolid]	1.3	1.26	0.842	1.04
Cc1nccn1CC1CCc2c(c3ccccc3n2C)C1=O (configuration not stated) [Ondansetron HCl]	0.951	1.12	1.07	1.08
COc1ccc2c(c1)c(CC(=O)OCC(=O)O)c(C)n2C(=O)c1ccc(Cl)cc1 [Acemetacin]	0.906	1.07	0.937	1.07
COc1cc2c(cc1Cc1cccc(Cl)c1F)c(=O)c(C(=O)O)cn2[C@H](CO)C(C)C [Elvitegravir (GS-9137, JTK-303)]	0.756	1.03	0.277	0.257
COc1ccc2cc3[n+](cc2c1OC)CCc1cc2c(cc1-3)OCO2 [Berberine HCl]	1.02	1.01	0.716	0.58
Cn1sc(=O)n(Cc2ccccc2)c1=O	0.797	0.735	0.0256	0.00748
